Source: PubChem BioAssay AID504332 (National Center for Advancing Translational Sciences (NCATS), 2011)
Out of some 350,000 compounds screened, about 31,000 (8.9%) were called active. The inconclusive results got no clear call from the source; some entries with a clear call stand among them for comparison. The call rests on the fitted dose curve; in most records, active means well fitted inhibition curve with a large enough effect; inconclusive means small, poorly fitted or top-dose-only effect; inactive means no such curve, though single readings can be large or run the other way. A potency beside an inconclusive call is a rough fit, not a confirmed value.

target: Histone-lysine N-methyltransferase EHMT2 (Homo sapiens) (UniProt Q96KQ7); assay: qHTS Assay for Inhibitors of Histone Lysine Methyltransferase G9a; settings: G9a H3K9 monomethylation, AlphaScreen, 2 h; activity, negative = inhibition: at 59 µM (top of the series) unless noted; further: nearly all actives have a fitted effect of over 75% in size
Sequence of UniProt Q96KQ7 (Q96KQ7 whole entry, looked up): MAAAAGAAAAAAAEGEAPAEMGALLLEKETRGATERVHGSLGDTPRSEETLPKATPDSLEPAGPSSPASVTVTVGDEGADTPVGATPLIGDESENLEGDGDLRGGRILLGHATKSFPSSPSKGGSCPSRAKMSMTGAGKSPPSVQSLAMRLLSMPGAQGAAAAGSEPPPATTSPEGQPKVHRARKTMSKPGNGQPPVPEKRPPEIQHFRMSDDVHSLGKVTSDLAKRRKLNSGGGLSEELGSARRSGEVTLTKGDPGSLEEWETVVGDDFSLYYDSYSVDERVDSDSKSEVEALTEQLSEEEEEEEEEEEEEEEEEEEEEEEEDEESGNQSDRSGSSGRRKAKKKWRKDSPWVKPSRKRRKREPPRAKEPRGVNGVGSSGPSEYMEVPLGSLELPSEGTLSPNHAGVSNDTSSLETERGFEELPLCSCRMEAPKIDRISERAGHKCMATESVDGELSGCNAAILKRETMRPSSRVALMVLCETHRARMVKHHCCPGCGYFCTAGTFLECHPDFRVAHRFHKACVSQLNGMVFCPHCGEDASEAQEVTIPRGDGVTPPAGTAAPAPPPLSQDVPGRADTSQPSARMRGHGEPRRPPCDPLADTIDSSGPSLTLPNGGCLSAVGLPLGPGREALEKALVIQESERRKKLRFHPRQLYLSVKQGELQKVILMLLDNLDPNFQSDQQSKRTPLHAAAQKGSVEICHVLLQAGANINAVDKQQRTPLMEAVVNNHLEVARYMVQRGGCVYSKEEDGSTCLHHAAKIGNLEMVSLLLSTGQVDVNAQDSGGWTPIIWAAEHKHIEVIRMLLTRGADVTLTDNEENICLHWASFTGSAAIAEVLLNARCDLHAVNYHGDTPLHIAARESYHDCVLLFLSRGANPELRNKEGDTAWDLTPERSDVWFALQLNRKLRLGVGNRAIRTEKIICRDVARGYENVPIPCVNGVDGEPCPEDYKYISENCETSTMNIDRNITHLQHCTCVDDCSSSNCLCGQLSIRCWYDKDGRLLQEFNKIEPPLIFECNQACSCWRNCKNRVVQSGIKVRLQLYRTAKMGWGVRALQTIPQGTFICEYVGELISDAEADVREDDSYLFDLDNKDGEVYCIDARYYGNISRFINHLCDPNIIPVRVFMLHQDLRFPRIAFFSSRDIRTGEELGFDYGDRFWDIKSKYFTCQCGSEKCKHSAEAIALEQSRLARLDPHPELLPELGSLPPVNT
Procedure, shortened: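 Compounds were preincubated with 20 nM G9a for 15 min, after which biotinylated H3K9 peptide (500 nM) and SAM (20 uM) started a 2 h room-temperature reaction. Monomethylated product was quantified by antibody-based AlphaScreen chemiluminescence.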
On the % scale 0 is the no-effect control and ±100 the full control effect; potency means the concentration at half of the fitted maximal effect; tags describe the fitted curve by direction and shape.

| SMILES | Potency | activity, negative = inhibition |
| --- | --- | --- |
| CCOC(=O)C1CCN(C2=NC(=O)/C(=C/c3ccc(OC)c(OC)c3)S2)CC1 | active: 39.8 µM | – |
| CC1(c2ccc(OC(F)F)cc2)NC(=O)N(/N=C/c2c(O)ccc3ccccc23)C1=O (stereo not drawn) | inconclusive: 39.8 µM [inhibitor, single point] | – |
| Cc1ccccc1CNC(=O)C1CCN(c2nnc(-n3c(C)ccc3C)s2)CC1 | inactive | – |
| COc1ccc(O)c(-c2cn[nH]c2-c2cccs2)c1 | inconclusive: 14.1 µM [inhibitor, partial curve] | – |
| COCCN=C1Sc2nc3c(C)cccc3cc2CN1Cc1ccco1 | – | inactive: 11.3% [at 2.33 µM] |
| CCOC(=O)C1CCN(C(=O)c2cc(COc3ccc(OC)c4ccccc34)on2)CC1 | active: 44.7 µM | – |
| Cc1nc2ccccc2n1CC(=O)N/N=C\c1ccccn1 | inconclusive: 1.26 µM [inhibitor, full curve, poor fit] | – |
| CCCCCC(=O)NC(=S)Nc1ccc(N2CCOCC2)cc1 | active: 3.55 µM | – |
| CC(C)C(O)(C#CCN1CCCCC1)C(C)C | inconclusive: 79.4 µM [inhibitor, partial curve, poor fit] | – |
| CC(=O)N1CCN(C(=S)c2ccc([N+](=O)[O-])cc2)CC1 | active: 22.4 µM | – |
| COc1cc(NS(=O)(=O)c2ccc(N/C=C(\C=O)c3nc4ccccc4o3)cc2)nc(OC)n1 | active: 35.5 µM | – |
| COc1ccc(OC)c(CNC(=O)Cc2c(C(=O)O)[nH]c3ccccc23)c1 | – | inconclusive: -57.7% [inhibitor] |
| COc1ccc(Cl)cc1NC(=O)CNc1ccccc1CN(C)C1CCCCC1 | inactive | – |
| CC(OCC(O)CN(C)CCOc1ccccc1)c1ccc(Cl)cc1 (stereo not drawn) | inconclusive: 39.8 µM [inhibitor, single point] | – |
| Cn1nccc1C(=O)Nc1ccc(Cl)cc1 | – | inactive: 43.6% [at 12.7 µM] |
| CCc1cccc(CC)c1NC(=O)C(CC)n1nc(C)n2c(cc3cc(C)ccc32)c1=O (stereo not drawn) | inactive | – |
| CC(=O)NC(=S)c1c(N)n(Cc2ccccc2)c(=O)n(C)c1=O | inconclusive: 7.08 µM [inhibitor, single point] | – |
| Cc1ccc(C(=O)Nc2ncc(Cc3ccc(SC(F)F)cc3)s2)cc1 | inactive | – |
| CC1CCN(S(=O)(=O)c2ccc3c(c2)oc(=O)n3CC(=O)NC(C)c2ccccc2)CC1 (stereo not drawn) | inconclusive: 39.8 µM [inhibitor, single point] | – |
| Cc1cc(C)nc(-n2nc(C)cc2NC(=O)CN2CCc3ccccc3C2)n1 | inconclusive: 39.8 µM [inhibitor, single point] | – |
| COc1ccc(OCC(=O)N2CCN(c3nnc(-c4ccccc4)c4ccccc34)CC2)cc1 | inconclusive: 79.4 µM [inhibitor, single point] | – |
| Cc1ccc(-c2nc(CS(=O)(=O)CC(=O)N3CCN(c4cccc(C)c4C)CC3)c(C)o2)cc1 | inactive | – |
| Cc1ccc(/C=N/n2cnc3sc(C)c(C)c3c2=O)o1 | inactive | – |
| O=C(Nc1nc2c(s1)CCCC2)c1ccc(S(=O)(=O)N2CCCc3ccccc32)cc1 | inconclusive: 28.2 µM [inhibitor, single point] | – |
| O=C(CCC(=O)c1cccs1)Nc1ccc(N2CCCCC2)cc1 | inconclusive: 39.8 µM [inhibitor, partial curve] | – |

| SMILES | Potency | activity, negative = inhibition |
| --- | --- | --- |
| N[C@@H](Cc1ccccc1)C(=O)N1CCC(C(=O)N[C@@H](Cc2c[nH]c3ccccc23)C(=O)O)CC1 | inconclusive: 89.1 µM [inhibitor, single point] | – |
| Cc1ccc2nc(/C(C#N)=C/c3ccc(O)c(O)c3)[nH]c2c1 | active: 8.91 µM | – |
| CC(C)(C)Nc1nc(-c2ccc3c(c2)CCN3C(=O)C2CC2)cs1 | active: 39.8 µM | – |
| Cc1cc(NC(=O)COC(=O)C2CCN(S(=O)(=O)c3ccc(Cl)cc3)CC2)no1 | inactive | – |
| Cc1ccc(/C=N/NC(=O)c2ccccn2)o1 | inconclusive: 31.6 µM [inhibitor, single point] | – |
| COc1ccccc1OCC(=O)NN1Cc2ccccc2C1=N | inconclusive: 25.1 µM [inhibitor, single point] | – |
| COc1ccc(NC(=O)/C(=C\c2ccncc2)NC(=O)c2ccccc2)cc1 | inactive | – |
| COC(=O)[C@]1(C)CCC[C@@]2(C)C3CC[C@@]4(C)C[C@]3(CCC21)CC(=O)N4Cc1ccc(OC)cc1 (stereo partly drawn) | – | inactive: -2.15% [at 0.501 µM] |
| Cc1cc(S(=O)(=O)N(Cc2ccccc2F)C2CC2)ccc1-n1cnnn1 | inconclusive: 56.2 µM [inhibitor, partial curve, poor fit] | – |
| O=C(CCc1ccc(O)c(O)c1)NNC(=S)Nc1ccc(Br)cc1Cl | active: 17.8 µM | – |
| Cn1c(SCC(=O)N2CCCc3ccccc32)ncc(C(=O)Nc2ccc(F)cc2)c1=O | inactive | – |
| COc1ccc(CN2CC(=O)N3[C@H]4c5ccccc5OC[C@@H]4[C@H](c4ccccc4)[C@]3(C)C2=O)cc1 | – | inactive: -1.32% [at 0.501 µM] |
| CCOC(=O)c1[nH]c2ccc(OC)cc2c1NC(=O)CCN1CCCC(C)C1 (stereo not drawn) | inconclusive: 35.5 µM [inhibitor, single point] | – |
| Cc1cc(C(=O)Cn2nc(C(=O)O)c3ccccc3c2=O)c(C)n1C1CC1 | inconclusive: 56.2 µM [inhibitor, partial curve, poor fit] | – |
| O=C1Nc2ccccc2C(O)(C(=O)NCc2ccco2)N1c1ccc(Cl)c(Cl)c1 (stereo not drawn) | inactive | – |
| O=C(O)/C=C/C(=O)NNC(=O)c1cccc(Br)c1 | inconclusive: 11.2 µM [inhibitor, partial curve, poor fit] | – |
| CCCS(=O)(=O)C/C(N)=N/OC(=O)c1ccc(Cl)cc1 | inactive | – |
| Cc1ccccc1-c1nc2cc(NC(=O)c3cccc(OCCC(C)C)c3)ccc2o1 | inactive | – |
| O=C(CSc1oc(-c2ccc(F)cc2)nc1S(=O)(=O)c1ccccc1)NCC1CCCO1 (stereo not drawn) | inconclusive: 39.8 µM [inhibitor, single point] | – |
| Cc1nc2ccccc2c(=O)n1CCc1ccccc1 | inconclusive: 89.1 µM [inhibitor, partial curve, poor fit] | – |
| COc1cccc(C2/C(=C(/O)c3ccc4c(c3)CC(C)O4)C(=O)C(=O)N2c2nnc(C)s2)c1 (stereo not drawn) | active: 39.8 µM | – |
| CCOc1ccc2[nH]c3c(NCCN(CC)CC)ncnc3c2c1 | inconclusive: 70.8 µM [inhibitor, single point] | – |
| CCOc1ccccc1C1CC(=O)NC(SCC(=O)Nc2nccs2)=C1C#N (stereo not drawn) | active: 14.1 µM | – |
| CCCCN1C2CCCC1CC(NC(=O)c1cccc(OC)c1)C2 (stereo not drawn) | inconclusive: 5.62 µM [inhibitor, full curve, poor fit] | – |
| Cc1ccc(NS(=O)(=O)c2ccccc2[N+](=O)[O-])cc1C | inconclusive: 56.2 µM [inhibitor, partial curve] | – |

| SMILES | Potency | activity, negative = inhibition |
| --- | --- | --- |
| COc1ccc2nc(C)cc(SCC(=O)N3CCCCC3)c2c1 | inconclusive: 44.7 µM [inhibitor, partial curve, poor fit] | – |
| Cc1nc2ccccc2nc1N/N=C/c1ccc(O)cc1O | inconclusive: 50.1 µM [inhibitor, partial curve] | – |
| O=C(N/N=C/c1ccncc1)c1cccc(S(=O)(=O)N2CCCC2)c1 | inactive | – |
| COc1ccc(N2CCN(C(=O)CN3CCN(c4nc(-c5ccc(F)cc5)cs4)CC3)CC2)cc1 | inconclusive: 100 µM [inhibitor, single point] | – |
| O=C(CSc1nnc(CNC(=O)c2ccccc2F)n1-c1ccccc1)Nc1ccccc1F | inactive | – |
| COc1cccc(C(c2sc3ncnn3c2O)N2CCc3ccccc3C2)c1 (stereo not drawn) | active: 7.08 µM | – |
| N#Cc1c(N2C(=O)Nc3ccccc3N2O)sc2c1CCCC2 | inconclusive: 100 µM [inhibitor, single point] | – |
| Cc1cccn2c(=O)c(C=O)c(N3CCN(C)CC3)nc12 | – | inactive: 22.3% [at 0.501 µM] |
| Cc1cccc(OCc2n(CC(=O)OC3CC(C)CCC3C(C)C)c3ccccc3[n+]2C)c1 (stereo not drawn) | inactive | – |
| COc1ccc(Nc2nc(N3CCOCC3)nc(N3CCOCC3)n2)c(OC)c1 | – | inactive: 8.39% [at 0.501 µM] |
| O=C1CC(c2ccc3c(c2)OCCO3)Oc2ccc([N+](=O)[O-])cc21 (stereo not drawn) | inactive | – |
| O=C(CNc1ccc(C(F)(F)F)cc1[N+](=O)[O-])OCC(=O)c1ccccc1 | inconclusive: 8.91 µM [inhibitor, partial curve, poor fit] | – |
| CNCCCC1c2ccccc2C=Cc2ccccc21 | inactive | – |
| C1=Cc2ccccc2Nc2ccccc21 | inconclusive: 31.6 µM [inhibitor, full curve] | – |
| CC(C)CNC(=O)CC(=O)N/N=C/c1ccc(F)cc1 | inactive | – |
| Cn1cccc1/C=N/NC(=O)c1ccco1 | inconclusive: 44.7 µM [inhibitor, partial curve, poor fit] | – |
| CCOC(=O)C1CCCN(C(=O)c2cccc(NC(=O)c3nsc4ccccc34)c2)C1 (stereo not drawn) | inactive | – |
| Cc1nc(SCC(=O)Nc2ccc(N3CCOCC3)cc2)nc(C)c1C | active: 39.8 µM | – |
| CCn1cc2nc(SCc3ccccc3Cl)n(CCc3ccccc3)c(=O)c2n1 | inactive | – |
| CC(C)COC(=O)CNc1n[nH]c(=S)[nH]c1=O | – | inactive: -8.2% [at 12.7 µM] |
| Cc1ccc(-c2nc(NC(=O)CSc3ncnc4sc5c(c34)CCC(C)C5)ns2)cc1 (stereo not drawn) | inactive | – |
| O=C1C(Nc2ccccc2)=C2CCCC=C2N1c1ccccc1 | inconclusive: 79.4 µM [inhibitor, partial curve, poor fit] | – |
| Nc1c(C(=O)O)cnc2c(-c3ccc(Cl)cc3)cnn12 | – | inconclusive: -82.1% [inhibitor] [at 12.7 µM] |
